Target: T1, Fc fragment from adalimumab
T1 construct: also called adalimumab Fc fragment
Assay: SPR; ligand on CM5; max response at 800 nM, rounded to 50 Ru

B1: ZGE0214 (domain E with A/R/I at positions 33/40/51) (designed binder)
chain: AQHDEAQQNAFYQVLNMPNLNADQRNGFIQALKDDPSRSANVLGEAQKINDSQAPK
max response (Ru): 1650 Ru

B2: ZGE0234 (domain E with A/G/R at positions 33/40/51) (designed binder)
chain: AQHDEAQQNAFYQVLNMPNLNADQRNGFIQALKDDPSGSANVLGEAQKRNDSQAPK
max response (Ru): 1100 Ru

— US20250277006A1 (CYTIVA BIOPROCESS R AND D, published 2025)
